{"source": "PubChem BioAssay AID588342", "about": "(National Center for Advancing Translational Sciences (NCATS), 2011)", "note": "In all, about 360,000 compounds went through this assay and about 25,000 (6.9%) were called active. The shares of active, inactive and inconclusive entries below differ from those in the screen. Calls follow the shape of the dose curve; as a rule, active = well fitted inhibition curve with a large enough effect; inconclusive = small, poorly fitted or top-dose-only effect; inactive = flat fitted curve, though single readings scatter. A potency beside an inconclusive call is a rough fit, not a confirmed value. Potency is read from the fitted curve at half-maximal effect; tags tell the direction and shape of the fitted curve."}
{"target": "Luciferin 4-monooxygenase (Photinus pyralis) (UniProt P08659)", "sequence (P08659 whole entry, looked up)": "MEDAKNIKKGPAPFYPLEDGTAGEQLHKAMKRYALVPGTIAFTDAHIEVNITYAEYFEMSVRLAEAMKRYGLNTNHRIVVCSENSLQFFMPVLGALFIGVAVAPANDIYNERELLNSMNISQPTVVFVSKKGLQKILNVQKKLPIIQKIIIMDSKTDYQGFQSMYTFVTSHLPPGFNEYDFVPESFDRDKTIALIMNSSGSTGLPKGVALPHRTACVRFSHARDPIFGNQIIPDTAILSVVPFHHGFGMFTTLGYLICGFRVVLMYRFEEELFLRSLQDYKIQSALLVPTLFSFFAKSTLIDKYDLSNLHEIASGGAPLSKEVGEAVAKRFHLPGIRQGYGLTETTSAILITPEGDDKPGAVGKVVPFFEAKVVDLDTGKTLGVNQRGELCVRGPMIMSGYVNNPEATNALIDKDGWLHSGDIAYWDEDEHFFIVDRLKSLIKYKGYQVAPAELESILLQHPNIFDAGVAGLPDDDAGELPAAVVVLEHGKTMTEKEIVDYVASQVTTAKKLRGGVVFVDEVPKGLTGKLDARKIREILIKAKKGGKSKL", "assay": "qHTS profiling assay for firefly luciferase inhibitor/activator using purifed enzyme and Km concentrations of substrates (counterscreen for miR-21 project); also: nearly all actives have a fitted effect of over 55% in size", "conditions": "purified FLuc, luminescence inhibition; series mostly up to 57.5 µM", "in_short": "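Purified P. pyralis luciferase (10nM final) with 10uM D-luciferin and 10uM ATP (Km levels) in 50mM Tris acetate pH 7.5, 10mM Mg acetate, 0.01% Tween-20, 0.05% BSA; qHTS 6-point titration, ~60 µM downward; luminescence read.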"}
{"smiles": "O=C(Nc1ccc(Cl)c(C(=O)N2CCOCC2)c1)c1ccccc1", "Potency": "inconclusive: 23.9 µM [inhibitor, single point]"}
{"smiles": "O=C(NCc1ccccc1)c1ccc(CSc2ccccc2)o1", "Potency": "inconclusive: 37.9 µM [inhibitor, single point]"}
{"smiles": "CCC(=O)N1CCC(c2ccc(OC)cc2)=N1", "Potency": "inconclusive: 30.1 µM [inhibitor, single point]"}
{"smiles": "O=Cc1cccc(OCc2cccc3ccccc23)c1", "Potency": "active: 26.9 µM"}
{"smiles": "CCOc1ccc(Nc2nc(N)c(C(=O)c3ccccc3Cl)s2)cc1", "Potency": "inconclusive: 37.9 µM [inhibitor, single point]"}
{"smiles": "Cc1ccc(NC(=O)CC2SCCNC2=O)cc1Cl", "note": "(configuration not stated)", "Potency": "inconclusive: 23.9 µM [inhibitor, single point]"}
{"smiles": "S=C(NCc1ccccc1)N1CCc2ccccc2C1", "Potency": "inactive"}
{"smiles": "O=C1C=C(Nc2ccccc2C(=O)O)c2ccccc2C1=O", "Potency": "inconclusive: 21.3 µM [inhibitor, partial curve]"}
{"smiles": "COc1cc(CNc2ncc(-c3ccc(Br)cc3)n2C)cc(OC)c1O", "Potency": "inactive"}
{"smiles": "Fc1ccc(Nc2nc(SCc3cccc(F)c3)nc3ccccc23)cc1", "Potency": "inactive"}
{"smiles": "CCN(CC)C(=O)Nc1cnc2ccccc2c1", "Potency": "inconclusive: 21.3 µM [inhibitor, partial curve, poor fit]"}
{"smiles": "CCOc1ccc(Cc2n[nH]c(=S)n2N)cc1", "Potency": "inactive"}
{"smiles": "CN(CC(=O)Nc1ccc(F)c(F)c1F)C(=O)c1ccc(=O)[nH]c1", "Potency": "active: 4.26 µM"}
{"smiles": "COc1ccc(-c2cn3c(n2)sc2cc(C(=O)Nc4ccc(F)cc4)ccc23)cc1", "Potency": "inactive"}
{"smiles": "Cc1cc(NC(=O)c2ccc(F)cc2)ccc1-c1cc2ccccc2oc1=O", "Potency": "inconclusive: 37.9 µM [inhibitor, single point]"}
{"smiles": "COc1cc(SC)ccc1C(=O)Nc1ccncc1", "Potency": "inconclusive: 21.3 µM [inhibitor, single point]"}
{"smiles": "COc1ccc(CNC(=O)C(=O)c2cn(CC(=O)N3CCOCC3)c3ccccc23)cc1", "Potency": "inconclusive: 30.1 µM [inhibitor, partial curve, poor fit]"}
{"smiles": "CN(C)c1ccc(/C=N/NC(=O)CNC(=O)/C=C/c2ccco2)cc1", "Potency": "inconclusive: 21.3 µM [inhibitor, single point]"}
{"smiles": "CCCCSc1nnc2[nH]c(=O)cc(C)n12", "Potency": "inactive"}
{"smiles": "O=C1COc2ccc(S(=O)(=O)Nc3ccc(F)cc3)cc2N1", "Potency": "inactive"}
{"smiles": "O=C(COC(=O)c1cc(S(=O)(=O)N2CCCCC2)ccc1N1CCOCC1)c1ccccc1", "Potency": "inactive"}
{"smiles": "Cc1ccc2c(c1)C(=O)OC(C(=O)Nc1ccc(C(=O)O)cc1)C2", "note": "(configuration not stated)", "Potency": "active: 7.57 µM"}
